# Test results reported in the supplement of paper PMC8728848.
# The list shows a part of the results.
# B1: ClecSol-Fc (Cryptosporidium parvum) (protein)
# chain: CPEGWISNGEKTRCFKLVTFDRPRTFSHGFKACNDLGGTEVETRRRNGSKETNEYPVTLASVYKLSDEEAIRRTLVEQGDIHKTANGCFVGLRKYAFFRYPPGWYWIDSGSPVSVRDSEINWTSSYNASWLLRFKFPFEKCGFFDIGGLGRRPCWLIDSELSCAVCGTVAYDSGGLNPNKYSELIKQTDEIISKEPKLDLPGYNNLNCTDAWENNLSVGLCQNVSNILDSAWSSYQSSLNFPSINFNWKEDSTNEGGDQVYHNSYLDLPRYKQKKTFYWDQDPGTIPALSDEMKLIGLSAQPTYHPLDRSSSGSFESDSTESGRANEERNDTLEEMIYKQSSDSIEDILVPVTKPIFSDYSSIGRNSGVEEVYSSNVSTISSKGVVFPNTTTSSDNDFTKNNPANSSKHTSTSTTTNTTTTTTRTTTTTTTTTTTTTTTTTTTTETTTTKKSTTATKNTTTT
# Assays:
# Experiment in all cases: glycan array binding signal (z-score within array); higher = stronger binding
# Details in all cases: glycan notation: IUPAC condensed, linker removed
# [1] = biological target: Gal(b1-4)GlcNAc(b1-2)Man(a1-3)[Gal(b1-4)GlcNAc(b1-2)Man(a1-6)]Man(b1-4)GlcNAc(b1-4)[Fuc(a1-6)]GlcNAc
# Procedure, shortened: (§1)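 Negative Z-scores can be read as non-binding. The Z-score is calculated within each array and then averaged across arrays of one protein sequence at different concentrations or buffers and across linkers. Arrays, 3228 in all, were curated from the Consortium for Functional Glycomics database and kept only where the protein sequence was available.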
# [2] = biological target: Gal(b1-4)GlcNAc(b1-2)Man(a1-3)[Gal(b1-4)GlcNAc(b1-2)Man(a1-6)][Gal(b1-4)GlcNAc(b1-4)]Man(b1-4)GlcNAc(b1-4)[Fuc(a1-6)]GlcNAc
# Procedure, shortened: as §1
# [3] = biological target: Gal(b1-4)GlcNAc(b1-2)Man(a1-3)[Gal(b1-4)GlcNAc(b1-2)Man(a1-6)][GlcNAc(b1-4)]Man(b1-4)GlcNAc(b1-4)[Fuc(a1-6)]GlcNAc
# Procedure, shortened: as §1
# [4] = biological target: Gal(b1-4)GlcNAc(b1-2)Man(a1-3)[GlcNAc(b1-2)Man(a1-6)]Man(b1-4)GlcNAc(b1-4)GlcNAc
# Procedure, shortened: as §1
# [5] = biological target: Gal(b1-4)GlcNAc(b1-2)Man(a1-3)[GlcNAc(b1-4)][Gal(b1-4)GlcNAc(b1-2)Man(a1-6)]Man(b1-4)GlcNAc(b1-4)GlcNAc
# Procedure, shortened: as §1
# [6] = biological target: Gal(b1-4)GlcNAc(b1-2)Man(a1-3)[Man(a1-6)]Man(b1-4)GlcNAc(b1-4)GlcNAc
# Procedure, shortened: as §1
# [7] = biological target: Gal(b1-4)GlcNAc(b1-2)Man(a1-6)Man(b1-4)GlcNAc(b1-4)GlcNAc
# Procedure, shortened: as §1
# [8] = biological target: Gal(b1-4)GlcNAc(b1-2)Man(a1-6)[GlcNAc(b1-2)Man(a1-3)]Man(b1-4)GlcNAc(b1-4)GlcNAc
# Procedure, shortened: as §1
# [9] = biological target: Gal(b1-4)GlcNAc(b1-2)Man(a1-6)[Man(a1-3)]Man(b1-4)GlcNAc(b1-4)GlcNAc
# Procedure, shortened: as §1
# [10] = biological target: Gal(b1-4)GlcNAc(b1-2)[Gal(b1-4)GlcNAc(b1-4)]Man(a1-3)[Gal(b1-4)GlcNAc(b1-2)Man(a1-6)]Man(b1-4)GlcNAc(b1-4)GlcNAc
# Procedure, shortened: as §1
# [11] = biological target: Gal(b1-4)GlcNAc(b1-2)[Gal(b1-4)GlcNAc(b1-4)]Man(a1-3)[Gal(b1-4)GlcNAc(b1-2)[Gal(b1-4)GlcNAc(b1-6)]Man(a1-6)]Man(b1-4)GlcNAc(b1-4)GlcNAc
# Procedure, shortened: as §1
# [12] = biological target: Gal(b1-4)GlcNAc(b1-2)[Gal(b1-4)GlcNAc(b1-4)]Man(a1-3)[GlcNAc(b1-4)][Gal(b1-4)GlcNAc(b1-2)Man(a1-6)]Man(b1-4)GlcNAc(b1-4)GlcNAc
# Procedure, shortened: as §1
# [13] = biological target: Gal(b1-4)GlcNAc(b1-2)[Gal(b1-4)GlcNAc(b1-4)]Man(a1-3)[GlcNAc(b1-4)][Gal(b1-4)GlcNAc(b1-2)[Gal(b1-4)GlcNAc(b1-6)]Man(a1-6)]Man(b1-4)GlcNAc(b1-4)GlcNAc
# Procedure, shortened: as §1
# [14] = biological target: Gal(b1-4)GlcNAc(b1-2)[Gal(b1-4)GlcNAc(b1-6)]Man(a1-6)[Gal(b1-4)GlcNAc(b1-2)Man(a1-3)]Man(b1-4)GlcNAc(b1-4)GlcNAc
# Procedure, shortened: as §1
# [15] = biological target: Gal(b1-4)GlcNAc(b1-2)[Gal(b1-4)GlcNAc(b1-6)]Man(a1-6)[Gal(b1-4)GlcNAc(b1-2)Man(a1-3)]Man(b1-4)GlcNAc(b1-4)[Fuc(a1-6)]GlcNAc
# Procedure, shortened: as §1
# [16] = biological target: Gal(b1-4)GlcNAc(b1-2)[Gal(b1-4)GlcNAc(b1-6)]Man(a1-6)[GlcNAc(b1-4)][Gal(b1-4)GlcNAc(b1-2)Man(a1-3)]Man(b1-4)GlcNAc(b1-4)GlcNAc
# Procedure, shortened: as §1
# [17] = biological target: Gal(b1-4)GlcNAc(b1-2)[Gal(b1-4)GlcNAc(b1-6)]Man(a1-6)[GlcNAc(b1-4)][Gal(b1-4)GlcNAc(b1-2)[Gal(b1-4)GlcNAc(b1-4)]Man(a1-3)]Man(b1-4)GlcNAc(b1-4)[Fuc(a1-6)]GlcNAc
# Procedure, shortened: as §1
# [18] = biological target: Gal(b1-4)GlcNAc(b1-3)Gal(b1-3)GalNAc
# Procedure, shortened: as §1
# [19] = biological target: Gal(b1-4)GlcNAc(b1-3)Gal(b1-3)GlcNAc
# Procedure, shortened: as §1
binder,measurement,setting,value
B1,glycan array binding signal (z-score),[1],0.081
same,glycan array binding signal (z-score),[2],-0.127
same,glycan array binding signal (z-score),[3],-0.22
same,glycan array binding signal (z-score),[4],-0.232
same,glycan array binding signal (z-score),[5],-0.166
same,glycan array binding signal (z-score),[6],0.042
same,glycan array binding signal (z-score),[7],-0.159
same,glycan array binding signal (z-score),[8],-0.184
same,glycan array binding signal (z-score),[9],-0.206
same,glycan array binding signal (z-score),[10],-0.221
same,glycan array binding signal (z-score),[11],-0.056
same,glycan array binding signal (z-score),[12],-0.119
same,glycan array binding signal (z-score),[13],-0.155
same,glycan array binding signal (z-score),[14],-0.221
same,glycan array binding signal (z-score),[15],-0.266
same,glycan array binding signal (z-score),[16],0.117
same,glycan array binding signal (z-score),[17],0.02
same,glycan array binding signal (z-score),[18],-0.152
same,glycan array binding signal (z-score),[19],-0.125
